Reference: publication PMC4336329 (PLoS ONE, 2015)
The whole screen tested about 310,000 compounds, of which about 2,200 (0.71%) showed an effect of 50% or more. Effects have a minus sign here. This is one part of the list.

target: human ether-à-go-go-related gene (hERG) potassium channel (human, UniProt Q12809); assay: primary screen, population patch clamp on CHO cells stably expressing hERG
Sequence (Q12809 whole entry, looked up): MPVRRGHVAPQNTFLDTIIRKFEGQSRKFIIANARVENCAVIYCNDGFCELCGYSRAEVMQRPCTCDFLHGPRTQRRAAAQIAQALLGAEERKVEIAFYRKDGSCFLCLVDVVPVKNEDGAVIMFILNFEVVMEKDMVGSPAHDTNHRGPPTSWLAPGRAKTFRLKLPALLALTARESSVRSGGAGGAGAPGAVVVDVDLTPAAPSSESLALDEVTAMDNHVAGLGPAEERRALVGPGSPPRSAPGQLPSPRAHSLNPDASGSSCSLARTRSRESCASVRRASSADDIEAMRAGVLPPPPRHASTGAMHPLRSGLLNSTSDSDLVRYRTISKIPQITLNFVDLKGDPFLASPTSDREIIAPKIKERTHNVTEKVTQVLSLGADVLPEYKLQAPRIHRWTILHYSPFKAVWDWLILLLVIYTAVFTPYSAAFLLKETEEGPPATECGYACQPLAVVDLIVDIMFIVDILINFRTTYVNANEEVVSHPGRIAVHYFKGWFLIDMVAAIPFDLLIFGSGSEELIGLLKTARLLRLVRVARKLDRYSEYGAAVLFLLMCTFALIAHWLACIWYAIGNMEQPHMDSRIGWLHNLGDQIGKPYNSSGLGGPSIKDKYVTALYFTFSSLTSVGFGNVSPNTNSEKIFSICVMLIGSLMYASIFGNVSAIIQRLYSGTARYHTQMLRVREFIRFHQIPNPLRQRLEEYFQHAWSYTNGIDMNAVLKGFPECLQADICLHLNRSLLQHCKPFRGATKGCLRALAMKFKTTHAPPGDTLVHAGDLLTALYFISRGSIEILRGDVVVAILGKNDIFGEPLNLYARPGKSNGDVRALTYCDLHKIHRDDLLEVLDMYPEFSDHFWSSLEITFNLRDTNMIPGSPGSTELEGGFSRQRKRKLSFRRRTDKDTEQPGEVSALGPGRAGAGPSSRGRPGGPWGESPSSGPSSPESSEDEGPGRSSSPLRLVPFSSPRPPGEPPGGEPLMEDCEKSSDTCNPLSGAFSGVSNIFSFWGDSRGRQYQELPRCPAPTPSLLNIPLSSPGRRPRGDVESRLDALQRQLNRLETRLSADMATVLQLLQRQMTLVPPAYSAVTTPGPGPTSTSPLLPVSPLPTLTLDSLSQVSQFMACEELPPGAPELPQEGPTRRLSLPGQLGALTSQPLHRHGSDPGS

Row | SMILES | hERG current change (%, negative = inhibition) at 1uM [%]
1 | Cc1nc(CCl)cc(=O)[nH]1 | 4.26
2 | COc1ccc2c(C)cc(N3CCN(Cc4ccccc4)CC3)nc2c1 | 7.13
3 | O=C(Nc1cccc2c1CCCC2)c1ccc(Cl)c([N+](=O)[O-])c1 | 9.4
4 | c1ccc(C[C@H]2CN=C(Nc3ccccc3)N2CC2CCC2)cc1 | -4.68
5 | COc1ccc(-n2c(=O)c3c4c(sc3n3c(=S)[nH]nc23)CCC4)cc1 | 9.01
6 | CCC1(c2ccccc2)NC(=O)N(CC(=O)NCc2ccc(F)cc2)C1=O (centres unmarked) | 21.7
7 | Cc1sc2ncnc(N3CCOCC3)c2c1C | -5.93
8 | O=S(=O)(c1ccc(=S)[nH]c1)N1CCCCCC1 | 11.8
9 | Cc1c(C(=O)NCc2ccc(F)cc2)oc2ccc(S(=O)(=O)N3CCOCC3)cc12 | 10.1
10 | Cc1cc(COc2ccccc2O)on1 | 9.61
11 | O=C(CCc1ccc(S(=O)(=O)NC2CCCCC2)cc1)Nc1ccccc1 | 10.6
12 | CCOC(=O)c1c(NC(=O)CSc2nnc(-c3c[nH]c4ccccc34)n2CCOC)sc2c1CCCC2 | 15.2
13 | CCNC(=S)/N=C(/Nc1ccc(OC)cc1)Nc1nc(C)cc(C)n1 | 8.68
14 | Cc1cc(C)n2cc(CSc3ccc(Cl)cc3)nc2n1 | -19.5
15 | Cc1cc(OCC(=O)Nc2ccccc2N2CCOCC2)c(C(C)C)cc1Cl | 10.3
16 | O=C(Cc1ccccc1)NNS(=O)(=O)c1ccc(F)cc1 | 5.14
17 | CN(C)S(=O)(=O)N(CC(=O)Nc1cccc(F)c1)c1ccccc1 | 3.23
18 | Cc1nnc(NC(=O)CSc2nnc(CNC(=O)c3ccc(F)cc3)o2)s1 | 12
19 | O=C(Nc1cc(=O)[nH]c(=O)[nH]1)c1cccc(Br)c1 | 17.4
20 | O=C(O)c1[nH]c2ccc(Cl)cc2c1CC(=O)N1CCN(C(=O)c2ccco2)CC1 | 12.5
21 | Cn1c(-c2ccc(CN3CCCCC3)o2)nc2ccccc21 | -3.89
22 | CCCCSCCCNC(=O)c1cn(C)c2ccc(S(=O)(=O)N3CCCC3)cc2c1=O | 13.3

Row | SMILES | hERG current change (%, negative = inhibition) at 1uM [%]
23 | O=C(NCCCn1ccnc1)/C(=C\c1ccc(Br)cc1)NC(=O)c1ccccc1F | -81.5
24 | O=C1CCCc2ccccc2N1Cc1ccc(Cl)cc1Cl | 3.98
25 | COc1cccc(C2=NOC(C(=O)Nc3cc(C)on3)C2)c1 (centres unmarked) | 6.07
26 | Cc1cnc(CN(C)C(=O)C2CCC(=O)N(CCc3cccc(F)c3)C2)[nH]1 (centres unmarked) | 13.2
27 | Nc1c(C(O)(C(F)(F)F)C(F)(F)F)cc(C(O)(C(F)(F)F)C(F)(F)F)c2ccccc12 | 13.3
28 | N=c1c2ccccc2nc2n1CCCCCCCCCCC2 | -16.6
29 | O=C(CC1CC2CCC1C2)Nc1nc(-c2ccccn2)cs1 (centres unmarked) | 1.24
30 | c1ccc(C(c2ccccc2)N2CCN(Cc3nnnn3C3CCCCC3)CC2)cc1 | 3.19
31 | CC(=O)N1c2ccccc2CCc2ccc(N)cc21.Cl | 13.4
32 | CCCn1c(C)cc(C(=O)COC(=O)c2ccc(Cl)c(S(=O)(=O)N3CCCC3)c2)c1C | 11.1
33 | Nc1cc(Cl)ccc1N1C(=O)CCC1=O | 11.3
34 | O=C(c1ccc(S(=O)(=O)c2ccc(Cl)cc2)cc1)N1CCOCC1 | -3.98
35 | CC1(C)Cc2nc3oc4c(NCc5ccccc5)ncnc4c3cc2CO1 | -5.07
36 | Cc1cc(O)c(C(=O)/C=C/c2ccccc2Br)c(=O)o1 | 14.3
37 | COc1ccc(CN2C(=O)c3ccccc3C(/C=N/OCc3ccc(Cl)cc3)C2=O)cc1 (centres unmarked) | 13.6
38 | CC(C)Cn1c(-c2csc(C(C)C)c2)n[nH]c1=S | 2.21
39 | O=C(CCCN1C(=O)CCC1=O)Nc1ccc(Cl)c(C(F)(F)F)c1 | 8.15
40 | CC(C)CC(=O)Nc1ccc(C(=O)Cn2c(=O)oc3ccccc32)cc1 | 8.72
41 | CCN(CC#CCC(O)(c1ccccc1)C1CCCC1)C(C)C.Cl (centres unmarked) | -6.91
42 | O=C1c2ccccc2S(=O)(=O)N1Cc1ccccc1[N+](=O)[O-] | 12.2
43 | O=C(CSc1nnc(-c2ccccc2)o1)c1ccc2c(c1)OCCO2 | 11.6
44 | COc1ccccc1NC(=O)c1ccc(Cl)c(S(=O)(=O)NCc2ccco2)c1 | 9.55
